Assay results taken from PubChem BioAssay AID1159614 (National Center for Advancing Translational Sciences (NCATS), 2016).
Among all 45,000 compounds or so, about 65 (0.1%) were called active. Calls come from the whole dose curve; as a rule, active = well fitted activation curve with a large enough effect; inconclusive = small, poorly fitted or top-dose-only effect; inactive = no such curve, though single readings can be large or run the other way. Some of the results follow.

What follows are compounds tested against Galactocerebrosidase (Homo sapiens) (UniProt P54803) (assay: A Novel Cell-Based Assay to Identify Small Molecules for B -Galactocerebrosidase). Conditions: 145M-Twi-hGALC-G270D cells, HMU-beta-Gal fluorescence, 48 h; series mostly up to 57.5 µM; activation: at the top concentration.
Method in brief: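 qHTS, 1536-well; 145M-Twi-hGALC-G270D cells (WT line also made) in DMEM/F12 + 10% FBS; compound incubation on live cells; HMU-β-gal 0.1 mM final, pH 5.2, NaTC; carbonate stop; fluorescence increase = enhanced residual activity.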
Note: 0% is about no effect; nearly all actives have a fitted effect of over 65% in size.

Chain of UniProt P54803 (P54803 whole entry, looked up): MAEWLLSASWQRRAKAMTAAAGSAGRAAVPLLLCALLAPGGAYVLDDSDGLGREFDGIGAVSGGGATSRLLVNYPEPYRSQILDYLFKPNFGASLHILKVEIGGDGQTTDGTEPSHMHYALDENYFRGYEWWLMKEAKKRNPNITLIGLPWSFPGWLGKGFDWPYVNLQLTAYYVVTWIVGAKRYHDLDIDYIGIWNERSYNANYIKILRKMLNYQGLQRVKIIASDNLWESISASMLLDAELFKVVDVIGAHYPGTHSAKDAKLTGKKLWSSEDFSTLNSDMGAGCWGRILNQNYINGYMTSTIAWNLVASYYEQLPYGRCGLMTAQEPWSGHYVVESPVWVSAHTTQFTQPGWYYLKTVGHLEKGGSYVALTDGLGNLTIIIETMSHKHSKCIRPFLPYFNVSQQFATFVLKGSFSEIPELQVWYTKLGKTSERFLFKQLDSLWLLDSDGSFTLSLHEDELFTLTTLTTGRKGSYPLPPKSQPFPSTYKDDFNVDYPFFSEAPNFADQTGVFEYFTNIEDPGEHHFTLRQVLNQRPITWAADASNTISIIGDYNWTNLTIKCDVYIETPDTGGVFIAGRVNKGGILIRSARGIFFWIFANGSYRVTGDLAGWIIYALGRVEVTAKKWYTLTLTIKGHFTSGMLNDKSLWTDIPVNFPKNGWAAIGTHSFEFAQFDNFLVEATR

activation, inactive:
COc1ccccc1NC(=O)Cn1c(=O)n(Cc2ccccc2)c(=O)c2c1c1cc(C)ccc1n2C -8.01%
O=c1[nH]cnc2[nH]ncc12 -12.2%
CCNc1nc(NCc2ccc(F)cc2)c2cnn(C)c2n1 -6.43%
O=C(c1cnn(-c2ccc(F)cc2)c1-n1cccc1)N1CCN(c2ccc(F)cc2)CC1 -36.9%
CC1CCN(S(=O)(=O)c2ccc3c(c2)CCN3)CC1 3.52%
CC1=C(C(=O)Nc2cccc(Cl)c2C)C2(CCCCCC2)OC1=O -3.19%
COc1ccc(CC(=O)Nc2sc3c(c2C(=O)Nc2ccccc2)CCCCC3)cc1 -20.1%
O=S(=O)(NCCS(=O)(=O)N1CCN(c2ccccc2)CC1)c1ccc(Br)cc1 -4.96%
CCc1ccc(S(=O)(=O)c2nnn3c2nc(Nc2cc(OC)ccc2OC)c2sccc23)cc1 -0.529%
COc1ccccc1Nc1sc(C(=O)c2ccc(C)cc2C)c(N)c1S(=O)(=O)c1ccccc1 -18%
Cc1ccc2oc(C(=O)Nc3cccc(Cl)c3)cc(=O)c2c1 -2.27%
O=C(Cc1ccccc1)Nc1sc2c(c1C(=O)Nc1ccc(Br)cc1)CCC2 -11.7%
COc1ccccc1C(=O)Nc1ccccc1OCc1cc(=O)n2ccccc2n1 -16.5%
Cc1c(C(=O)Nc2nc(-c3ccc(F)cc3)ns2)oc2ccc(Cl)cc12 -21.1%
Cc1ccc(CCNC(=O)CS(=O)Cc2nc(-c3ccccc3Cl)oc2C)cc1 (stereo not given) -17%
COc1ccc(CNc2nc3c(-c4ccccc4)nnn3c3ccccc23)cc1 -13.5%
COc1cccc(N2CC(NC(=O)c3ccc(S(=O)(=O)N4CCOCC4)cc3)CC2=O)c1 (stereo not given) -13.2%
O=C(Nc1ccc(F)cc1)c1csc2c1CCCCC2 1.56%
C/C=C1\[C@H]2C=C(C)C[C@]1(N)c1ccc(=O)[nH]c1C2 -12.5%
O=C(CS)Nc1ccccc1 13.1%
O=C(NCCc1ccccc1)c1nc(-c2ccc(Cl)cc2)n2c1CCCCC2 -13.5%
CCc1ccc(CNC(=O)c2c(C)oc3ncnc(N4CCOCC4)c23)cc1 -7.69%
COc1cc2ccccc2cc1C(=O)Nc1ccc2oc(-c3ccc(F)cc3Cl)nc2c1 -34.3%
COc1cccc(C(=O)Nc2c(C(=O)N3CCN(c4ccc(F)cc4)CC3)oc3ccccc23)c1 -0.575%
CN(C)CCCN1c2ccccc2CCc2ccccc21 -15.2%
CCOc1ccc(C(=O)c2oc3ccccc3c2NC(=O)Cc2coc3ccc(CC)cc23)cc1 -16.8%
Cc1cccc(NC(=O)N2CCC3(CC2)Oc2ccccc2C(=O)N3Cc2ccccc2F)c1C -8.93%
O=C(Cc1ccc(F)cc1)Nc1nnc2n1CCS2 -16.4%
COc1ccccc1NC(=O)CSc1nc(-c2ccc(C(C)(C)C)cc2)c(C#N)c(=O)[nH]1 -7.15%
Cc1cccc(N2CCN(CCNC(=O)Nc3ccc(Cl)cc3)CC2)c1C -26%
O=C(NCCn1ccc2ccccc21)c1ccc(Cl)cc1 -6.61%
CCc1ccccc1OCC(=O)Nc1ccc(S(=O)(=O)Nc2nc(C)cc(C)n2)cc1 -13%
CCOc1ccccc1-n1nnc(-c2nsc(NC(=O)c3ccc(C)cc3)n2)c1C -8.73%
CCc1cccc(-n2c(=O)c3cccnc3n2CC(=O)Nc2ccc(F)c(C)c2)c1 -21.2%
CC(C)c1ccc(Nc2cc(C(=O)NC3CCCCC3)c3ccccc3n2)cc1 -19.6%
CCc1ccc2occ(CC(=O)Nc3ccccc3C(F)(F)F)c2c1 -14.4%
CSc1cccc(Nc2cc(C(=O)NCCCN(C)c3ccccc3)c3ccccc3n2)c1 -29.9%
CCOC(=O)c1c(-c2ccc(C)cc2)csc1NC(=O)c1cc(=O)c2ccc(C)cc2o1 -5.61%
COc1ccc(/C=C/C(=O)Nc2nc3n(n2)C(c2ccc(F)cc2)C=C(c2ccccc2)N3)cc1 (stereo not given) -2.66%
COc1ccc(NC(=O)Cn2c(=O)n(Cc3nc(-c4ccccc4)no3)c(=O)c3ccccc32)cc1Cl -27.8%
CCCCCCCCCCC(CO)CCCCCCCC (stereo not given) -14.8%
CC(=O)N1CCc2cc(S(=O)(=O)NC(C(=O)Nc3ccc(C)cc3C)C(C)C)ccc21 (stereo not given) 1.88%
COc1ccc(NC(=O)C2CCCN(S(=O)(=O)c3ccc(Br)s3)C2)cc1 (stereo not given) -5.12%
COc1cc(C(=O)n2nc(C)c(Sc3ccc(Cl)cc3)c2C)cc(OC)c1OC -23.1%
CC(C)c1ccc(NC(=O)CN2C(=O)COc3ccc(S(=O)(=O)N4CCCCCC4)cc32)cc1 -12.5%
CCc1ccc(NC(=O)Cn2c(=O)n(Cc3ccco3)c(=O)c3oc4ccccc4c32)cc1 -17.1%
O=C(NCc1cccs1)c1ccc(CSc2nc3cccnc3n2Cc2ccccc2F)cc1 -1.02%
CCOC(=O)c1c(NC(=O)c2cc(-c3cccc(OC)c3)on2)sc2c1CCCC2 -21.6%
COc1ccc(CC(=O)NCC(c2cccs2)S(=O)(=O)c2ccc(C)cc2)cc1 (stereo not given) 8.38%
COc1cccc(CNC(=O)Cc2c(C(=O)O)c(C)cn2C)c1 -5.18%
CCN(CC)C(=O)c1ccc(Nc2nnc(-c3ccc(C)c(S(=O)(=O)NC)c3)c3ccccc23)cc1 -9.38%
CCc1cccc(N2C(=O)CSC23C(=O)Nc2ccccc23)c1 (stereo not given) -11.7%
COc1ccc(S(=O)(=O)Nc2c(C)nc3nc(C)[nH]n3c2=O)cc1 2.11%
Cc1cc(C)c(NC(=O)Cn2cnc3c(oc4ccccc43)c2=O)c(C)c1 -11.3%
Cc1oc(-c2ccccc2Cl)nc1CSc1nc2ncccc2[nH]1 -5.42%
CCOC(=O)c1c(C)n(-c2ccccc2)c2ccc(OC(=O)c3cccc(OC)c3OC)cc12 -12.4%
COc1ccccc1N1CCN(c2ncnc3onc(-c4cccc(Cl)c4)c23)CC1 -9.65%
O=C(NCc1cccc(Cl)c1)c1ccc2nc(N3CCCCC3)sc2c1 -1.08%
CC1CCN(C(=O)c2cc(-c3ccc(Br)cc3)on2)CC1 -43.5%
CCc1nnc2c(N3CCN(c4cc(Cl)ccc4C)CC3)nc3ccccc3n12 -17.9%
CCOC(=O)C1CCCN(C(=O)c2nn(-c3ccc(C)cc3)c(=O)n(C)c2=O)C1 (stereo not given) -17.3%
CCOc1ccc(CNS(=O)(=O)c2ccc3c(c2)CCCN3C(C)=O)cc1OC -16.2%
CCCN(C(=O)c1cc2c(=O)[nH]c3ccc(C)cc3c2s1)c1ccc(CC)cc1 -16.1%
O=C(COc1ccc(F)cc1)Nc1ccc2nc(SCC(=O)N3CCOCC3)sc2c1 -1.32%
COc1ccc(-c2noc(COc3cc(C)ccc3C)n2)cc1OC -3.99%
O=C1[C@@H]2CSC(c3ccc(Cl)cc3)N2C(=O)N1c1ccccc1 (stereo not given in full) 0.282%
CC(C)c1ccc(N2C(=O)CSC23C(=O)N(C)c2ccccc23)cc1 (stereo not given) -4.15%
COc1ccc(C2=C(C)C(=O)N(Cc3ccc(C(=O)NCc4cccc(C)c4)cc3)S2(=O)=O)cc1 16.9%
COc1ccc2c(c1)c(N1CCCC1=O)c(C(=O)Nc1ccccc1C(F)(F)F)n2C -19%
COc1ccc(-c2noc(N3CCC(C(=O)N4CCN(c5cccc(C)c5C)CC4)CC3)n2)cc1 -8.26%
COc1ccc(C2=NC(c3ccncc3)=Nc3ccc(OC)cc3N2)cc1 -27.3%
CCOc1ccc(NC(=O)CCNS(=O)(=O)c2cccc3nonc23)cc1 -5.49%
CC(C)OCCCNC(=O)c1ccc(CSc2nc3cccnc3n2Cc2ccccc2)cc1 -33.7%
COc1ccc(-c2nc3ccc(NS(=O)(=O)c4ccc(C)cc4)cc3o2)cc1 -0.487%
O=C(OCc1cc(=O)n2nc(-c3cccs3)sc2n1)c1ccc(Cl)cc1 -9.7%
O=C(CN1C(=O)COc2ccc(Cl)cc21)Nc1ccc(F)cc1 -5.71%
CCN(C(=O)c1nn(-c2ccc(OC)c(Cl)c2)c(=O)c2c1c1ccccc1n2C)c1cccc(C(F)(F)F)c1 -21.4%
CCCOc1cccc(C(=O)Nc2cccc3cccnc23)c1 -18.3%
Cc1cc(CN2CCN(c3ccccc3F)CC2)cs1 -7.91%
CCOc1ccc(CNCc2c(C(=O)O)c(C)n(Cc3cccc(OC)c3)c2C)cc1OC -3.33%
O=C(CCC(=O)N1CC2CCCN2c2ccccc21)NCc1ccc(Cl)cc1 (stereo not given) -3.95%
CCC1CCC(C(=O)NC(C(=O)Nc2cccc(OC)c2)C(C)C)CC1 (stereo not given) -5.71%
Cc1nc2nc(CNC(=O)OC(C)(C)C)nn2c(C)c1CCC(=O)NCc1ccc(F)cc1 8.25%
Cc1nc2sccn2c(=O)c1S(=O)(=O)Nc1ccc(N2CCOCC2)c(Cl)c1 -5.5%
Cc1ccc(NC(=O)Cn2ncn3c(cc4ccccc43)c2=O)cc1F -11.4%
CCC1=C(c2ccc(C)cc2)S(=O)(=O)N=C1N1CCC(C(=O)Nc2ccccc2F)CC1 -9.15%
Cc1ccc(Cn2c(C(=O)NCc3ccccc3Cl)cc3sccc32)cc1 10.7%
COC(=O)c1c(SCC(=O)Nc2cc(OC)cc(OC)c2)[nH]c2ccc(C)cc2c1=O -19.9%
COc1ccc(CNC(=O)CCCN2C(=O)CSc3c2c(C)nn3-c2ccccc2)cc1 -8.55%
COC(=O)c1cc2sc(C)cc2n1Cc1cccc(OC)c1 -3.33%
COc1ccc(C2Nc3ccccc3-c3cc(C)nn32)cc1OC (stereo not given) -15.2%
FC1(F)C(F)(F)C(F)(F)C2(F)C(F)(F)C(F)(F)C(F)(F)C(F)(F)C2(F)C1(F)F (stereo not given) -17.9%
O=c1cc(-c2ccccc2)nc(SCc2nc(-c3ccccc3Cl)no2)[nH]1 1.47%
CCOc1cc(C(=O)Nc2cc3c(cc2N2CCOCC2)n(C)c(=O)n3C)cc(OCC)c1OCC -22.3%
CCOC(=O)c1c(-c2ccc(OC)cc2)oc2ccc(OCc3ccccc3C)cc12 6.71%
Cc1cccn2c(=O)c(C(=O)NCc3ccc(F)cc3)c(O)nc12 -9.65%
CCN(CC)CCNC(=O)C1CCN(c2nn3cc(-c4ccc(F)cc4)nc3s2)CC1 3.27%
CN(C/C=C/C#CC(C)(C)C)Cc1cccc2ccccc12 -15.4%
CCOC(=O)c1c(C)[nH]c(C)c1S(=O)(=O)N1CCCC(C(=O)NCc2cccc(C)c2)C1 (stereo not given) -13.5%
Cc1ccccc1CNC(=O)CCCn1c(=O)c2cccn2c2cccnc21 7.27%
